The supplement of paper PMC8285479
Counter-ions that a name gives are not always drawn. ± gives the standard deviation of the averaged measurements. The full ranking holds about 1,900 compounds; the median of “normalised cell viability (NPI; 0 = phenylarsine oxide control, 1 = DMSO control)” is about 1, and the lowest 2% start at about 0.039. The list shows a part of the results.

System: NCI-H1944
Assay: normalised cell viability (NPI; 0 = phenylarsine oxide control, 1 = DMSO control) (fraction of DMSO control); NCI-H1944 is a non-small cell lung cancer line; higher = more viable cells (less compound toxicity)
Details: 6 days
[1] = glucocorticoid arm: hydrocortisone 2.75 uM co-treatment, compound 1 µM
[2] = glucocorticoid arm: hydrocortisone 2.75 uM co-treatment, compound 5 µM
[3] = glucocorticoid arm: hydrocortisone 2.75 uM pre-treated 2 days and continued, compound 1 µM
[4] = glucocorticoid arm: hydrocortisone 2.75 uM pre-treated 2 days and continued, compound 5 µM
[5] = glucocorticoid arm: vehicle, compound 1 µM
[6] = glucocorticoid arm: vehicle, compound 5 µM
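Also: CTB read-out in 384-well plates, mean of triplicate wells, normalised per plate against 1 µM phenylarsine oxide and 0.1% DMSO, compounds added 24 h after seeding.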

SMILES | normalised cell viability [1] | normalised cell viability [2] | normalised cell viability [3] | normalised cell viability [4] | normalised cell viability [5] | normalised cell viability [6]
CCCCCCCCOc1ccccc1C(=O)Nc1ccc(C(=O)OCC[N+](C)(CC)CC)cc1 [Otilonium Bromide] | 1.03 ± 0.01 | 1.03 ± 0.026 | 1.01 ± 0.026 | 1.03 ± 0.025 | 1.007 ± 0.0058 | 1.003 ± 0.0058
N[C@@H](Cc1ccc(O)c(O)c1)C(=O)O [L-3,4-Dihydroxyphenylalanine] | 0.9983 ± 0.0021 | 0.97 ± 0.018 | 0.9913 ± 0.0074 | 0.971 ± 0.0087 | 0.9813 ± 0.0031 | 0.9793 ± 0.0055
O=C1c2c(O)ccc(O)c2C(=O)c2c(NCCNCCO)ccc(NCCNCCO)c21 [Mitoxantrone; Mitoxantrone dihydrochloride] | 0.181 ± 0.0045 | 0.00493 ± 0.00072 | 0.65 ± 0.012 | 0.0166 ± 0.0015 | 0.0328 ± 0.004 | 0.00403 ± 0.00087
O=C1c2c(O)ccc(O)c2C(=O)c2c(NCCNCCO)ccc(NCCNCCO)c21 [Mitoxantrone dihydrochloride] | 0.00888 ± 0.0019 | 0.00352 ± 0.00052 | 0.145 ± 0.013 | 0.155 ± 0.0095 | 0.00324 ± 0.00091 | 0.00617 ± 0.003
CCOC(=O)C1=C(C)NC(C)=C(C(=O)OC)C1c1cccc(Cl)c1Cl (centres undefined) [Felodipine] | 0.983 ± 0.026 | 0.938 ± 0.03 | 0.9947 ± 0.0047 | 0.916 ± 0.02 | 0.9823 ± 0.0091 | 0.9913 ± 0.0025
Cc1nc2sccn2c(=O)c1CCN1CCC(=C(c2ccc(F)cc2)c2ccc(F)cc2)CC1 [Ritanserin] | 1 ± 0.013 | 1 ± 0.017 | 1.03 ± 0.032 | 1.02 ± 0.011 | 1.005 ± 0.0081 | 1.007 ± 0.0058
CCCCCCCCCCCCCCCc1cccc(O)c1C(=O)O [Anacardic acid] | 1 ± 0.015 | 1.02 ± 0.0063 | 1.01 ± 0.012 | 1.02 ± 0.022 | 1 ± 0.024 | 1.01 ± 0.019
C[N+](C)(C)CCOC(N)=O [Carbachol] | 1.01 ± 0.011 | 1.02 ± 0.011 | 1.01 ± 0.01 | 1.01 ± 0.039 | 0.9927 ± 0.0055 | 0.9937 ± 0.0071
CCN1C(=O)C=CC1=O [N-Ethylmaleimide] | 1.02 ± 0.01 | 1.01 ± 0.01 | 1 ± 0.02 | 1.01 ± 0.011 | 0.99 ± 0.0044 | 0.9893 ± 0.0055
COc1cc(Nc2ncc3c(n2)-c2ccc(Cl)cc2C(c2c(F)cccc2OC)=NC3)ccc1C(=O)O [MLN8237 (Alisertib)] | 0.888 ± 0.0036 | 0.992 ± 0.027 | 0.943 ± 0.025 | 0.965 ± 0.022 | 0.509 ± 0.025 | 0.955 ± 0.01
COc1cc(Nc2ncc3c(n2)-c2ccc(Cl)cc2C(c2c(F)cccc2OC)=NC3)ccc1C(=O)O [Alisertib (MLN8237)] | 0.962 ± 0.024 | 0.982 ± 0.012 | 0.942 ± 0.063 | 0.995 ± 0.027 | 0.996 ± 0.017 | 0.903 ± 0.018
Cc1ccc(Nc2nccc(N(C)c3ccc4c(C)n(C)nc4c3)n2)cc1S(N)(=O)=O [Pazopanib] | 1.05 ± 0.01 | 1.12 ± 0.015 | 1.043 ± 0.0058 | 1.06 ± 0.015 | 1.02 | 1.03 ± 0.01
Cc1ccc(Nc2nccc(N(C)c3ccc4c(C)n(C)nc4c3)n2)cc1S(N)(=O)=O [Pazopanib Hydrochloride] | 1.07 ± 0.011 | 1.07 ± 0.021 | 1.037 ± 0.0058 | 1.05 ± 0.02 | 1.023 ± 0.0058 | 0.9 ± 0.012
Cc1ccc(Nc2nccc(N(C)c3ccc4c(C)n(C)nc4c3)n2)cc1S(N)(=O)=O [Pazopanib HCl] | 1.07 ± 0.01 | 1.06 ± 0.021 | 1.04 ± 0.01 | 1.04 ± 0.031 | 1.02 ± 0.01 | 0.9537 ± 0.0086
